“And” between values parts separate entries of the source, which are not always exact repeats. Equal values may be shown once. Among all 410,000 compounds or so, about 850 (0.21%) were called active. Inconclusive results, whose numbers are uncertain, are shown with a selection of clear calls. The call rests on the fitted dose curve; in most records, active means well fitted inhibition curve with a large enough effect; inconclusive means small, poorly fitted or top-dose-only effect, or another doubt; inactive means no such curve, though single readings can be large or run the other way. Potencies beside an inconclusive call are fits to weak or partial responses and may not hold up.
The molecules below were run against Glutaminase kidney isoform, mitochondrial (Homo sapiens) (UniProt O94925) (assay: qHTS for Inhibitors of Glutaminase (GLS)). Conditions: GLS enzymatic activity, qHTS titration; series mostly up to 45.5 µM.
Sequence of UniProt O94925 (O94925 whole entry, looked up, canonical isoform): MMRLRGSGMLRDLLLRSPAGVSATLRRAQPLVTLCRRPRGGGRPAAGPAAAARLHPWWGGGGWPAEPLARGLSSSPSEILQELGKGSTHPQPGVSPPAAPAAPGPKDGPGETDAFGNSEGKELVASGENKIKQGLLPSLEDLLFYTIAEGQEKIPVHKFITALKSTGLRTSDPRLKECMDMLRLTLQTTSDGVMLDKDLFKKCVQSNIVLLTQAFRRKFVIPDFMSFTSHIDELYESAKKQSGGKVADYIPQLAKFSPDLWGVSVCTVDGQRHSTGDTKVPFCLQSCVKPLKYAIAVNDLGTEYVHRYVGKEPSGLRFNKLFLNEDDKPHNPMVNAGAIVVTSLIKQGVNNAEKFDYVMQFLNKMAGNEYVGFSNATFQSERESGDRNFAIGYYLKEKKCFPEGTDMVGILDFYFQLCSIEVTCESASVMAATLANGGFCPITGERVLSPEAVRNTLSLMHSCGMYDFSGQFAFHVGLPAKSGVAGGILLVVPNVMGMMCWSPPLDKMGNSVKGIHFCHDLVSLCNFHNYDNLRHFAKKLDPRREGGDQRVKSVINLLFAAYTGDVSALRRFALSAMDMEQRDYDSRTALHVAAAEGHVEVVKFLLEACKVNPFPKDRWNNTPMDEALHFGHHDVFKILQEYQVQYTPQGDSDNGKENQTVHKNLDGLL
In short: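 Assay buffer: 45 mM KH2PO4 pH 8.2, 0.02% Tween-20. hKGA acts on L-glutamine (1 mM solution added); product glutamate is reported by an oxidase/peroxidase Amplex Red coupling, with fluorescence taken at baseline and 30 min.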
In the case of COc1ccc(NC(=O)CCc2nc(C3=CCN(Cc4cccc(C)c4)CC3)no2)c(OC)c1, the Potency is reported as inconclusive: 11.2 µM [inhibitor, partial curve].
CCCCC(C)C(OC(=O)CC(CC(=O)O)C(=O)O)C(CC(C)CC(O)CCCCC(O)CC(O)C(C)N)OC(=O)CC(CC(=O)O)C(=O)O (configuration not stated) was tested, and the Potency was “inactive”.
In the case of Cc1ccc(N2C(=O)NC(=O)/C(=C\c3cc(C)n(-c4sc5c(c4C#N)CCCC5)c3C)C2=O)cc1, the Potency is reported as inconclusive: 35.5 µM [inhibitor, single point].
With COc1cc(CN2CCN(C(=O)Cc3ccccc3)CC2)cc(OC)c1OC the Potency was “inactive”.
With CSc1nc(N)c(N=Nc2ccc([As](=O)(O)O)cc2)c(=O)[nH]1 the Potency was “inactive”.
For CC1CCN(C(CC(=O)c2ccccc2)C(=O)c2ccccc2)CC1 (configuration not stated), the Potency was inconclusive: 22.4 µM [inhibitor, single point].
With O=C1C2CC=CCC2C(=O)N1SC(Cl)(Cl)Cl (configuration not stated) the Potency was inconclusive: 14.1 µM [inhibitor, full curve].
With Cc1ccc(/C=C2/C(=O)NC(=O)N(CCc3ccc(F)cc3)C2=O)o1 the Potency was “inactive”.
For CCCCCCCCCCCCCCCC[N+](C)(C)C, the Potency was inconclusive: 28.2 µM [inhibitor, partial curve, poor fit] and inconclusive: 35.5 µM [inhibitor, single point].
With CCOP(=O)(OCC)c1nc(-c2ccc(C)cc2)oc1NCc1ccccc1 the Potency was inconclusive: 35.5 µM [inhibitor, single point].
In the case of CN(C)C=C1C(=O)N(C2CCCCC2)C(=O)N(C2CCCCC2)C1=O, the Potency is reported as inconclusive: 22.4 µM [inhibitor, single point].
Cc1ccccc1-n1c(O)c(/C=N/NC(=O)c2ccccc2O)c(=O)[nH]c1=S was tested, and the Potency was inconclusive: 25.1 µM [inhibitor, single point].
For Cc1cc(C(=O)OCC(=O)Nc2ccc(F)cc2)c(C)n1C1CC1, the Potency was “inactive”.
With CCN(CC)/[N+]([O-])=N/O the Potency was “inactive”.
O=C(NN=Cc1ccc(O)c(O)c1)c1ccccc1 was tested, and the Potency was inconclusive: 17.8 µM [inhibitor, single point].
S=c1[nH]nc(Cn2c(-c3ccccn3)nc3ccccc32)n1-c1ccc2c(c1)OCCO2 was tested, and the Potency was inconclusive: 11.2 µM [inhibitor, single point].
COc1ccc(/C=C2/C(=O)N(c3ccccc3)N=C2C)cc1 was tested, and the Potency was inconclusive: 5.62 µM [inhibitor, single point].
CCOC(=O)C(NS(=O)(=O)c1ccc(C)cc1)(C(F)(F)F)P(=O)(OCC(C)C)OCC(C)C (configuration not stated) was tested, and the Potency was inconclusive: 20 µM [inhibitor, single point].
With COCCCn1c(N)c(C(=O)NCCC(C)C)c2nc3ccccc3nc21 the Potency was “inactive”.
For O=c1[nH]sc2cc(F)ccc12, the Potency was active: 7.94 µM.
In the case of CC[C@@H](C(=O)[C@@H](C)[C@@H](O)[C@H](C)[C@@H]1O[C@@H]([C@@H](CC)C(=O)O)CC[C@@H]1C)[C@H]1O[C@]2(C=C[C@@H](O)[C@]3(CC[C@@](C)([C@H]4CC[C@](O)(CC)[C@H](C)O4)O3)O2)[C@H](C)C[C@@H]1C, the Potency is reported as inconclusive: 35.5 µM [inhibitor, single point].
With O=C1CC(c2ccccc2Br)c2c(c3ccccc3oc2=O)O1 (configuration not stated) the Potency was “inactive”.
In the case of O=C1NC(=S)NC(=O)C1c1ccccc1, the Potency is reported as inconclusive: 35.5 µM [inhibitor, single point].
Oc1cc2c(cc1CN1CCN(c3ccc(F)cc3)CC1)OCO2 was tested, and the Potency was inconclusive: 20 µM [inhibitor, single point].
Cc1ccc(S(=O)(=O)CC(C)(O)C(=O)Nc2cccc(C(F)(F)F)c2)cc1 (configuration not stated) was tested, and the Potency was inconclusive: 35.5 µM [inhibitor, single point].
For O/N=C/c1c[nH]c2ccccc12, the Potency was “inactive”.
With CCOc1ccc(-n2c(O)c(N=Nc3c(C)n(C)n(-c4ccccc4)c3=O)c(=O)[nH]c2=O)cc1 the Potency was inconclusive: 25.1 µM [inhibitor, single point].
In the case of O=C(COc1ccc(S(=O)(=O)N2CCOCC2)cc1)N1CCN(Cc2ccc3c(c2)OCO3)CC1, the Potency is reported as “inactive”.
For O=[N+]([O-])c1ccc(-c2ccccc2)c([As](=O)(O)O)c1, the Potency was “inactive”.
O=C(CCN1CC2CCC(CC2)C1)c1cccs1 was tested, and the Potency was “inactive”.
In the case of CCOC(=O)[C@]12Cc3ccccc3[C@H]1N(CCC(=O)OC)C(=O)c1cc(OC)ccc12, the Potency is reported as inconclusive: 25.1 µM [inhibitor, single point].
COC(=O)C1=Nc2ccccc2/C1=C\c1c(O)n(-c2ccc(Br)cc2)c(=O)[nH]c1=O was tested, and the Potency was inconclusive: 20 µM [inhibitor, partial curve, poor fit].
In the case of Cc1ccnc(-n2c(C)cc(C=C3C(=O)N(C)C(=S)N(C)C3=O)c2C)c1, the Potency is reported as inconclusive: 35.5 µM [inhibitor, single point].
In the case of Cc1[nH]c(=S)c(C#N)c2c1CCCC2, the Potency is reported as inconclusive: 22.4 µM [inhibitor, single point].
In the case of C[C@H]1CC[C@@]2(C)[C@@H](CC[C@@H]3[C@@H]2CC[C@]2(C)[C@@H](O)CC[C@@H]32)C1, the Potency is reported as inconclusive: 35.5 µM [inhibitor, single point].
With CC(=O)c1c(C)n(C2CCCCC2)c2ccc(O)cc12 the Potency was inconclusive: 35.5 µM [inhibitor, single point].
For O=c1c2ccccc2[se]n1-c1ccccc1, the Potency was active: 6.31 µM.
With O=C(O)c1ccc[nH]c1=S the Potency was inconclusive: 28.2 µM [inhibitor, single point].
For CNC(C(=O)c1ccccc1)C(OC)c1ccc(C)cc1 (configuration not stated), the Potency was “inactive”.
With Cc1cc(/C=C2\C(=O)NC(=O)N(c3ccc(Cl)cc3)C2=O)c(C)n1-c1cccc(C(=O)O)c1 the Potency was inconclusive: 35.5 µM [inhibitor, single point].
With Cc1cc(OCC(=O)N[C@@H](Cc2ccccc2)C(=O)O)c2c3c(c(=O)oc2c1)CCCC3 the Potency was inconclusive: 22.4 µM [inhibitor, single point].
With COc1cc(/C=C2\C[C@H]3[C@@H]4CC=C5C[C@@H](N6CCCC6)CC[C@]5(C)[C@H]4CC[C@]3(C)[C@H]2O)cc(OC)c1OC the Potency was inconclusive: 25.1 µM [inhibitor, single point].
For CN(C)S(=O)(=O)c1cc(NC(=O)C[N+]23CCN(CC2)CC3)ccc1Cl, the Potency was “inactive”.
Cc1ccc(N=C(/N=C(\N)N[N+](=O)[O-])Nc2ccc(C)cc2)cc1 was tested, and the Potency was inconclusive: 25.1 µM [inhibitor, single point].
With Cc1cc([P+](=O)O)c(C)n1-c1ccc(Br)cc1 the Potency was inconclusive: 8.91 µM [inhibitor, partial curve, poor fit].
Cc1cccc(N2C(=O)/C(=C/c3ccc(N4CCN(C)CC4)o3)C(=O)NC2=S)c1C was tested, and the Potency was inconclusive: 17.8 µM [inhibitor, single point].
In the case of CCN(CC)c1ccc(C=C2C(=O)NC(=S)NC2=O)cc1, the Potency is reported as inconclusive: 22.4 µM [inhibitor, single point].
For CN1CCc2cc(O)cc3c2[C@H]1Cc1ccc(O)c(O)c1-3, the Potency was “inactive”.
For COc1cccc(-c2nc3c(C#N)c[nH]n3c2NC2CCCCC2)c1OC, the Potency was inconclusive: 10 µM [inhibitor, partial curve].
In the case of O=c1[nH]c(=O)n(Cc2ccco2)c(O)c1/C=N/N1CCCCCC1, the Potency is reported as inconclusive: 7.08 µM [inhibitor, partial curve].
With CC(=O)O[C@H]1[C@H]2O[C@]23[C@@H]2CC[C@]4(O)C[C@@H](O)CC[C@]4(C)C2CC[C@]3(C)[C@H]1c1ccc(=O)oc1 (some centres not stated) the Potency was inconclusive: 35.5 µM [inhibitor, single point].
For COc1ccc(-c2cn(CCO)nc2-c2ccc(OC)cc2)cc1, the Potency was inconclusive: 22.4 µM [inhibitor, single point].
In the case of Cc1ccccc1N1C(=O)NC(=O)/C(=C/c2ccc(N3CCOCC3)o2)C1=O, the Potency is reported as “inactive”.
With CC[N+]12CCC(CC1)C(=C(c1ccccc1)c1ccccc1)C2 the Potency was “inactive”.
In the case of CCCCn1c(O)c(/C=N/NC(=O)c2ccncc2)c(=O)[nH]c1=O, the Potency is reported as inconclusive: 35.5 µM [inhibitor, single point].
For COc1cccc(-n2c(CN3CCN(C)CC3)nc3ccc([N+](=O)[O-])cc3c2=O)c1, the Potency was inconclusive: 35.5 µM [inhibitor, partial curve, poor fit].
With CCOC(=O)c1cc(CC)sc1/N=C/c1c(O)[nH]c(=S)[nH]c1=O the Potency was “inactive”.
For CC(Oc1ccc(-c2ccccc2)cc1)C(=O)O (configuration not stated), the Potency was inconclusive: 35.5 µM [inhibitor, single point].
In the case of O=C(c1ccc2c(=O)n(Cc3ccc4c(c3)OCO4)c(=S)[nH]c2c1)N1CCC2(CC1)OCCO2, the Potency is reported as inconclusive: 35.5 µM [inhibitor, partial curve, poor fit].
For Cc1cc(/C=C2\C(=O)NC(=O)N(Cc3ccccc3)C2=O)c(C)n1-c1ccc(Cl)c(C(=O)O)c1, the Potency was active: 10 µM.
CC(C)CC1C(C#N)=C(N)Oc2c1c(=O)oc1ccccc21 (configuration not stated) was tested, and the Potency was inconclusive: 22.4 µM [inhibitor, single point].
O=c1c2ccccc2nc(-c2ccco2)n1-c1nccs1 was tested, and the Potency was inconclusive: 12.6 µM [inhibitor, partial curve, poor fit].
CCCCCCC1CC(C)(C(=O)CNc2nncs2)OC1=O (configuration not stated) was tested, and the Potency was inconclusive: 35.5 µM [inhibitor, single point].
With O=C1NC(=S)NC(=O)C1C/C=C/c1ccccc1 the Potency was inconclusive: 35.5 µM [inhibitor, single point].
With Cc1cccc(N2C(=O)/C(=C/c3ccc(CN(CCC#N)S(C)(=O)=O)o3)C(=O)NC2=S)c1 the Potency was inconclusive: 28.2 µM [inhibitor, single point].
In the case of CCOP(=O)(CCP(=O)(OCC)OCC)OCC.C[CH2][Sn]([Cl])([Cl])[CH2]C, the Potency is reported as inconclusive: 4.47 µM [inhibitor, full curve].
In the case of Cn1cccc1/C=C1\C(=O)NC(=O)N(Cc2ccco2)C1=O, the Potency is reported as inconclusive: 35.5 µM [inhibitor, single point].
Potency means the concentration at half of the fitted maximal effect; tags describe the fitted curve by direction and shape.
